Drawing on the supplement of paper PMC9446081, this text covers relative growth for 59 compounds.

Each structure is given as a SMILES string. In all, about 39,000 compounds went through this assay and about 220 (0.56%) showed activity. Some of the results follow.
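Note: static incubation at 37 °C against the wild-type strain, values averaged over two biological replicates.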

The test system of this assay is Escherichia coli K-12 BW25113. Kind of assay: relative growth (OD600 normalised to plate interquartile mean) (fraction); higher = less growth inhibition, active = 0.2 or less. Particulars: 50 µM; LB; incubation time: overnight (16-24 h).
As for `C[C@@H]1CCCCO[C@H](CN(C)C(=O)Nc2ccc(C(F)(F)F)cc2)[C@@H](C)CN([C@H](C)CO)C(=O)c2cc(NC(=O)C3CCCCC3)ccc2O1`, the relative growth was inactive: 1.02.

As to `Cc1ccc(S(=O)(=O)N(C)C[C@@H]2Oc3ncc(C#CC(C)(C)O)cc3C(=O)N([C@H](C)CO)C[C@@H]2C)cc1`, the relative growth was inactive: 1.02.

Take `COCC#Cc1cnc2c(c1)C(=O)N([C@@H](C)CO)C[C@H](C)[C@H](CN(C)C(=O)Nc1ccc(OC)cc1)O2`: the relative growth is inactive: 0.994. With `C[C@@H]1CCCCO[C@@H](CN(C)Cc2ccc(Cl)c(Cl)c2)[C@H](C)CN([C@@H](C)CO)C(=O)c2cc(NS(=O)(=O)c3cccs3)ccc2O1` the figure was inactive: 1.02; with `CCN(CC)S(=O)(=O)c1ccc(C(=O)O)cc1`, inactive: 1.05; with `C[C@H](CO)N1C[C@H](C)[C@H](CN(C)Cc2ccc(C(=O)Nc3ccccc3N)cc2)Oc2ccc(NC(=O)C3CCCCC3)cc2C1=O`, inactive: 0.994. The figure for `COCC(=O)Nc1ccc2c(c1)OC[C@H](C)N(Cc1cccc(F)c1)C[C@@H](C)[C@@H](OC)CN(C)C2=O` is inactive: 1.02; for `CC(C)NC(=O)N(C)C[C@@H]1Oc2ccc(NS(=O)(=O)c3ccc(F)cc3)cc2CC(=O)N([C@@H](C)CO)C[C@@H]1C` it is inactive: 1.01; for `COc1ccc(S(=O)(=O)N(C)C[C@@H]2Oc3ccc(NS(=O)(=O)c4ccc(F)cc4)cc3C(=O)N([C@@H](C)CO)C[C@H]2C)cc1` it is inactive: 1.02. For `C[C@@H]1CN([C@H](C)CO)C(=O)Cc2cc(NC(=O)CCC(F)(F)F)ccc2O[C@@H]1CN(C)Cc1ccc(Oc2ccccc2)cc1`, the relative growth was inactive: 1. With `C[C@H]1CN([C@@H](C)CO)C(=O)c2cc(NC(=O)Cc3cn(C)c4ccccc34)ccc2O[C@@H]1CN(C)Cc1ccc(-c2ccccc2)cc1` the figure was inactive: 1. Consider `Cc1ccc(S(=O)(=O)N(C)C[C@@H]2OCCCC[C@@H](C)Oc3ccc(NS(=O)(=O)c4ccc(F)cc4)cc3C(=O)N([C@H](C)CO)C[C@@H]2C)cc1`, for which the relative growth was inactive: 1.01. Consider `C[C@@H]1CN([C@@H](C)CO)S(=O)(=O)c2ccc(C#Cc3ccccc3F)cc2O[C@@H]1CN(C)C(=O)Cc1ccncc1`, for which the relative growth was inactive: 1.02. The figure for `N#Cc1ccc(O)c(O)c1` is inactive: 0.967; for `C[C@@H]1CCCCO[C@H](CN(C)Cc2ccccc2)[C@H](C)CN([C@@H](C)CO)C(=O)c2cc(NC(=O)C3CCCCC3)ccc2O1` it is inactive: 1. With `C[C@H]1CN([C@@H](C)CO)C(=O)Cc2cc(NS(C)(=O)=O)ccc2O[C@@H]1CN(C)C(=O)Nc1ccccc1` the figure was inactive: 0.979. With `COc1ccc(CN(C)C[C@@H]2Oc3c(NC(=O)c4ccc(-c5nccs5)cc4)cccc3C(=O)N([C@H](C)CO)C[C@@H]2C)cc1` the figure was inactive: 0.992; with `COc1ccc(NC(=O)Nc2ccc3c(c2)C(=O)N([C@H](C)CO)C[C@@H](C)[C@H](CN(C)Cc2ccncc2)OCCCC[C@H](C)O3)cc1`, inactive: 1.03; with `Cc1noc(C)c1S(=O)(=O)Nc1ccc2c(c1)CC(=O)N([C@@H](C)CO)C[C@@H](C)[C@H](CN(C)C(=O)NC(C)C)O2`, inactive: 0.985. `C[C@H]1CN([C@@H](C)CO)C(=O)c2cccc(NC(=O)Nc3ccc(C(F)(F)F)cc3)c2O[C@@H]1CN(C)Cc1ccncc1`: the relative growth is inactive: 0.885. For the compound `COCCN1C[C@H]2COC[C@@H](C(=O)N3CCCO3)[C@H]2C1`, the relative growth is inactive: 1.

Take `Cc1ccc(S(=O)(=O)N(C)C[C@@H]2OCCCC[C@H](C)Oc3ccc(NC(=O)Nc4ccc(C(F)(F)F)cc4)cc3C(=O)N([C@H](C)CO)C[C@@H]2C)cc1`: the relative growth is inactive: 0.991. For the compound `C[C@@H]1CN([C@H](C)CO)C(=O)c2cc(NS(=O)(=O)c3cn(C)cn3)ccc2O[C@@H](C)CCCCO[C@H]1CN(C)S(=O)(=O)c1ccc(F)cc1`, the relative growth was inactive: 1. In the case of `C[C@H](CO)N1C[C@H](C)[C@@H](CN(C)Cc2ccc(Oc3ccccc3)cc2)Oc2ccc(NC(=O)Nc3ccccc3)cc2CC1=O`, the relative growth is inactive: 1.07. With `C[C@H]1CN([C@@H](C)CO)S(=O)(=O)c2ccc(C#Cc3ccc(F)cc3)cc2O[C@@H]1CN(C)C(=O)CN(C)C` the figure was inactive: 1.03; with `CS(=O)(=O)N1CCO[C@]2(COCCN(c3cncnc3)C2)C1`, inactive: 0.995; with `O=C(CCCCCC(=O)N/N=C/[C@H](O)[C@@H](O)[C@@H](O)[C@H](O)C(=O)O)NO`, inactive: 1.

Take `C/C=C/c1ccc2c(c1)O[C@@H](CN(C)S(=O)(=O)c1ccccc1OC)[C@H](C)CN([C@@H](C)CO)S2(=O)=O`: the relative growth was inactive: 1.02. For `C[C@H](CO)N1C[C@H](C)[C@@H](CN(C)C(=O)Nc2ccc(F)cc2)Oc2ccc(NS(=O)(=O)c3cn(C)cn3)cc2CC1=O`, the relative growth is inactive: 0.991. With `COc1ccc(-c2cc(=O)c3c(O)cc(OC)cc3o2)cc1`, the relative growth is inactive: 1.07. With `Cc1noc(C)c1NC(=O)Nc1ccc2c(c1)C(=O)N([C@@H](C)CO)C[C@H](C)[C@@H](CN(C)Cc1ccc(Cl)c(Cl)c1)O2`, the relative growth was inactive: 0.997.

Consider `C[C@@H]1CN([C@@H](C)CO)C(=O)Cc2cc(NC(=O)Nc3ccccc3)ccc2O[C@@H]1CN(C)Cc1ccc(Oc2ccccc2)cc1`, for which the relative growth was inactive: 0.967.

As to `O=C(C[C@H]1CC[C@H]2[C@@H](COC[C@@H](O)CN2C(=O)Nc2cccc(F)c2)O1)NCCCN1CCOCC1`, the relative growth is inactive: 0.94. The figure for `C[C@H](CO)N1C[C@H](C)[C@@H](CN(C)C(=O)Nc2cccc3ccccc23)Oc2c(NS(=O)(=O)c3ccc(F)cc3)cccc2C1=O` is inactive: 0.969; for `Cc1ccc(C(=N)NO)n1C` it is inactive: 0.849. For the compound `Cc1noc(C)c1S(=O)(=O)N(C)C[C@H]1Oc2ccc(NC(=O)Cn3cnnn3)cc2CC(=O)N([C@@H](C)CO)C[C@H]1C`, the relative growth is inactive: 1.01. With `Cc1ccc(S(=O)(=O)N(C)C[C@H]2OCCCC[C@H](C)Oc3ccc(NS(=O)(=O)c4ccc(Cl)cc4)cc3C(=O)N([C@H](C)CO)C[C@@H]2C)cc1` the figure was inactive: 1.03; with `Cc1noc(C)c1NC(=O)Nc1cccc2c1O[C@@H](CN(C)Cc1ccc(Cl)c(Cl)c1)[C@H](C)CN([C@@H](C)CO)C2=O`, inactive: 0.995. As for `CO[C@@H]1CN(C)C(=O)c2ccc(NC(=O)C3CC3)cc2OC[C@@H](C)N(C(=O)C2CCOCC2)C[C@@H]1C`, the relative growth was inactive: 1.01. With `O=C(C[C@H]1CC[C@H]2[C@@H](COC[C@H](O)CN2C(=O)Nc2cccc(F)c2)O1)NCCCN1CCOCC1` the figure was inactive: 0.897; with `CC(C)NC(=O)Nc1ccc2c(c1)C(=O)N([C@H](C)CO)C[C@H](C)[C@@H](CN(C)S(=O)(=O)c1ccccc1)O2`, inactive: 0.997.

`C[C@@H]1CN([C@H](C)CO)C(=O)c2cc(NC(=O)Nc3ccc(F)cc3)ccc2O[C@H]1CN(C)CC1CCCCC1`: the relative growth was inactive: 0.992. Consider `COc1ccc(NC(=O)N(C)C[C@H]2Oc3ccc(NS(C)(=O)=O)cc3C(=O)N([C@@H](C)CO)C[C@@H]2C)cc1`, for which the relative growth is inactive: 0.982.

Consider `C[C@H](CO)N1C[C@H](C)[C@H](CN(C)C(=O)C2CCCCC2)OCCCC[C@H](C)Oc2ccc(NC(=O)c3ccncc3)cc2C1=O`, for which the relative growth is inactive: 1. Consider `CN1C(=O)c2cc(NC(=O)Cc3cccs3)ccc2OC[C@H]2O[C@@H](CC(=O)NCCc3ccncc3)CC[C@@H]21`, for which the relative growth is inactive: 0.996. The figure for `C[C@H]1CN([C@@H](C)CO)C(=O)c2cc(NC(=O)Cc3ccccc3)ccc2O[C@H]1CN(C)S(=O)(=O)c1cccs1` is inactive: 1.02; for `C[C@@H]1CCCCO[C@@H](CN(C)Cc2ccc3c(c2)OCO3)[C@H](C)CN([C@H](C)CO)C(=O)c2cc(NC(=O)C3CCCCC3)ccc2O1` it is inactive: 1.01; for `COCCNC(=O)C[C@H]1C[C@H]2c3cc(NC(=O)Nc4ccc(C(F)(F)F)cc4)ccc3O[C@H]2[C@@H](CO)O1` it is inactive: 0.988. Turning to `C[C@@H]1CCCCO[C@H](CN(C)S(=O)(=O)c2ccc(Cl)cc2)[C@@H](C)CN([C@@H](C)CO)C(=O)c2cc(NC(=O)Nc3cccc4ccccc34)ccc2O1`, the relative growth is inactive: 0.911. With `C[C@H]1CN([C@@H](C)CO)C(=O)Cc2cc(NC(=O)Nc3ccc4c(c3)OCO4)ccc2O[C@@H]1CN(C)Cc1ccc(Oc2ccccc2)cc1` the figure was inactive: 1.02. The figure for `COc1ccc(S(=O)(=O)Nc2ccc3c(c2)C(=O)N([C@H](C)CO)C[C@H](C)[C@H](CN(C)C(=O)c2ccccc2)OCCCC[C@H](C)O3)cc1` is inactive: 1.02; for `CCN(CC)CCNC(=O)c1ccc(NC(C)=O)cc1.Cl` it is inactive: 0.996. The figure for `COC(=O)C[C@H]1CC[C@@H]2[C@H](COC[C@H](O)CN2S(=O)(=O)c2ccc(F)cc2)O1` is inactive: 1.01; for `C[C@@H]1CN([C@H](C)CO)C(=O)c2cccc(NC(=O)C3CCCCC3)c2O[C@H]1CN(C)Cc1ccc(Cl)c(Cl)c1` it is inactive: 0.973; for `CC(C)[C@@H](O)C[C@@H](C)O[C@@H]1O[C@H](CO)[C@@H](O)[C@H](O)[C@H]1O` it is inactive: 0.982. Turning to `COC(=O)c1cccc(NC(=N)N=C(N)N)c1`, the relative growth was inactive: 1.02.

Take `COc1ccc2nc3cc(Cl)ccc3c(Nc3cc(CN4CCCC4)c(O)c(CN4CCCC4)c3)c2n1.O=P(O)(O)O.O=P(O)(O)O.O=P(O)(O)O.O=P(O)(O)O`: the relative growth is inactive: 1.08.

As to `COc1ccc(C#Cc2ccc([C@H]3[C@H]4CN(S(=O)(=O)c5cn(C)cn5)CCCCN4[C@H]3CO)cc2)cc1`, the relative growth was inactive: 1.02. The figure for `C[C@H](CO)N1C[C@H](C)[C@@H](CN(C)S(=O)(=O)c2ccc(Cl)cc2)Oc2c(NC(=O)c3ccc(-c4nccs4)cc3)cccc2C1=O` is inactive: 0.999.
